T1: UNK ZnF1-3 (human, UniProt Q9C0B0 31-174)
T1 sequence: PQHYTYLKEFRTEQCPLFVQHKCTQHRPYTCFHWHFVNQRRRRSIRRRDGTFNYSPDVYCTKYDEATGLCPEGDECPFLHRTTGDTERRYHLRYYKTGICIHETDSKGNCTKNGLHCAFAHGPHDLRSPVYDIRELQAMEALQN

B1: chr1:163112212:163112213:-_ENSG00000143248_ENST00000313961|hu_hu|hu_hu_hu_mus_False|38_48 (ssRNA)
RNA: GGGAGUUCUACAGUCCGACGAUCUUUUAUUAUCAGUAAGAGUGAGUUACAUACUAGGCAAAGUAUUGGAUACAAUAAUCAGGAAACAAACACAAUUUUUCUUGAAUUUAAAACUUUAUGAGCGAAGUGCUGGCACAGGACUUACAACAGAGGAUUGAGCAUCA
B2: chr5:31101443:31101444:+_ENSMUSG00000029168_ENSMUST00000114729|mus_hu|motif|central (ssRNA)
RNA: GGGAGUUCUACAGUCCGACGAUCGUGGCUUCUGGGUCAGUAUCAGAAAAGCCCUCAUCACGACAUCGGCUUGACAGAGACCGGCUGUGGACUCCUAGCACUACACACACGCACGCACACGCACACACAGUAGCACAAUUUUCUCAACAGAGGAUUGAGCAUCA
B3: chr2:217002811:217002812:+_ENSG00000079246_ENST00000392132|hu_hu|motif|central (ssRNA)
RNA: GGGAGUUCUACAGUCCGACGAUCCAAGGAUGAAAACAUGUAUUGCCGCAAGUCUUCCAUGAAAGGCAGCUGCACAUACACGGAACACUCAUAGUUAUGCUUGAUAUGAGGAAAAGCCACGCCGACUUGAGGAUUAGCUCUUUUCAACAGAGGAUUGAGCAUCA
B4: chr5:54390236:54390237:+_ENSMUSG00000039156_ENSMUST00000071083|mus_mus|FALSE|FALSE (ssRNA)
RNA: GGGAGUUCUACAGUCCGACGAUCACUCAGCGACAUACAGGGAUCUGUCAGCAGCGCCUGGCGCUCGCCCGCAGCCGCAGCCGAAGGAGACGCCGCCGCUCCGGCCGAUCCCGACGCGCGCCGCCCGCGGAGGUGCCGGGGCACCAACAGAGGAUUGAGCAUCA
B5: chr7:151048522:151048523:+_ENSG00000013374_ENST00000566856|hu_mus|hu_hu_hu_mus_True|8_48 (ssRNA)
RNA: GGGAGUUCUACAGUCCGACGAUCCUGUUUCUUAUUUAUUACGAUCUUGAUGUAAUUUUCUUGAAAUCCGAAAGUUUCAGCUAUUUGGGACCUCAGUUCUCUACCAGUGACAUGCAAGCGGGUCUCCAACAAGUUUUUCUUAUCCAACAGAGGAUUGAGCAUCA
B6: chr16:94690093:94690094:+_ENSMUSG00000040785_ENSMUST00000117648|mus_hu|mus_mus_mus_hu_True|1_8 (ssRNA)
RNA: GGGAGUUCUACAGUCCGACGAUCGGGCUGGGAUGACGGACACACAGCCUCGAUUCCAGGGGGAAAAAGUCUUAGUCGAUACUAAUUAAAAAGUGUUAAUGAUUUUUGAAAAUCAGAUUACAUCUAUUUGAAUCAUAAGCACUUCAACAGAGGAUUGAGCAUCA
B7: chr1:130485734:130485735:-_ENSMUSG00000045382_ENSMUST00000052172|mus_mus|motif|central (ssRNA)
RNA: GGGAGUUCUACAGUCCGACGAUCGAUGAAGGAGUCGAUGCUGAUCCCCACAUAAUAUGGCAGCCAGCAGGCAAAGAAAGCGGGGAUGAGGAUGACUGUCGUCUUGAGGGCCUUGCGCUUCUGGUGGCCCUUGGAGUGUGACAGCAACAGAGGAUUGAGCAUCA
B8: chr4:41258970:41258971:+_ENSG00000154277_ENST00000284440|hu_hu|FALSE|FALSE (ssRNA)
RNA: GGGAGUUCUACAGUCCGACGAUCUGAGCUGCAUCUUCGCGGAGCGCCCGGCAGAAAUAGCCUAGGGAAGACGAAAAACAGCUAGCGGAGCCGCCCAGGCUGCAGCUAUAAAGCGCCGGCCAGACGCACUGUGAGGCCUGUGCACAACAGAGGAUUGAGCAUCA
B9: chr1:8037743:8037744:+_ENSG00000116288_ENST00000493373|perfect_dup|FALSE|FALSE (ssRNA)
RNA: GGGAGUUCUACAGUCCGACGAUCGCCAUUCAUCAUUUUGUCCUUAGCCAGUGGGUGUGUUGUGACCUUGCAUCCAAAACCUACUUCGUGAGCCAACAGAGCCGUAGGACCUGCACAGAUGGCAGCUAUGAGGCCCUUCCUGCUCAACAGAGGAUUGAGCAUCA
B10: chr3:127788656:127788657:+_ENSG00000058262_ENST00000243253|hu_mus|FALSE|FALSE (ssRNA)
RNA: GGGAGUUCUACAGUCCGACGAUCAAUUCACUUCUACUGGUUUUUUGCCAAUGCCAGAAAAAGCAAAAUUUCAAAUUGGAAAUUUCCUAGCACUUUACACAGUGGAAUGAAAAGAUAUGAAAUUUUAAAAAAAAUUAAAAAAAACAACAGAGGAUUGAGCAUCA
B11: chr22:32879901:32879902:+_ENSG00000100225_ENST00000397426|hu_mus|hu_hu_hu_mus_False|48_58 (ssRNA)
RNA: GGGAGUUCUACAGUCCGACGAUCCUCUUCCAUACUCAUGGCAUCCUGAAUUGACUCAGCUUCAACAUUUUGACUAGGCCCUAACAUACUGUCGUCAGUCCAGGCAUCAAAUGGGGUGGCCUGUCCUUGGGAUGAAUCAGUCCCCAACAGAGGAUUGAGCAUCA
B12: chr8:59070621:59070622:+_ENSMUSG00000038206_ENSMUST00000040218|mus_hu|FALSE|FALSE (ssRNA)
RNA: GGGAGUUCUACAGUCCGACGAUCGAUAAACAAAAUUAGGAAAAAUUCUGCAAAAUUAUUUAGUUCCCCAAGGAAAUUACUAAAAUAGAAAAUGGCAAAAGAAAAAAAGGUUGCACACUGAAGCUUGAUUGUAUACUCAGGCUACAACAGAGGAUUGAGCAUCA
B13: chr16:20679341:20679342:+_ENSMUSG00000045983_ENSMUST00000044783|mus_mus|FALSE|FALSE (ssRNA)
RNA: GGGAGUUCUACAGUCCGACGAUCUGGGGGUGGUGAUGGGGUUGGAGAAGGCGACGAAGGCUGAGAUUCUGUGCCAGGGCUAUGCUCUGGGCCAGGCAGUCCUGGCCGCCCCCCAAUGGCUGCUCCCUGCGACCGGUCAUCUGGCAACAGAGGAUUGAGCAUCA
B14: chr4:144460044:144460045:+_ENSG00000153147_ENST00000283131|hu_mus|hu_hu_hu_mus_False|58_58 (ssRNA)
RNA: GGGAGUUCUACAGUCCGACGAUCACGGUCCAUAGCCUGAAGAUCAACUUGCGGAUUCCAAUCUGAGUCAUAUAAAAUUACUACAUCAGCAGUUGCAAGAUUGAUGCCCAGACCACCAGCACGUGUGCUUAGCAUAAAUACAAACAACAGAGGAUUGAGCAUCA
B15: chr7:52703327:52703328:+_ENSMUSG00000003865_ENSMUST00000003964|mus_mus|FALSE|FALSE (ssRNA)
RNA: GGGAGUUCUACAGUCCGACGAUCCACCUUCACACGGUCGGCACUGCUGUUGAAAAGGCCAAUUCGGCGGAUGGUGGUCAAGAUGGGGUCUGAGGAGUCGUCCAGCAUGUUGUGGGUGCACACUGGUGGGAAAGACUGCCGCUGCAACAGAGGAUUGAGCAUCA
B16: chr2:219460011:219460012:+_ENSG00000144580_ENST00000542068|hu_mus|motif|central (ssRNA)
RNA: GGGAGUUCUACAGUCCGACGAUCAAACUCAUUCAGCUGCUUCUACAAUCAUGAGGAGAUGGCACUAUGAAAACUCACGCGGGAGAACGGGGUCAAGUAGUCUACCAUUUGGAUCCAGGCGCUUACUCCGUUUGAGAAGACACCCAACAGAGGAUUGAGCAUCA
B17: chr4:115894766:115894767:+_ENSMUSG00000028698_ENSMUST00000030464|mus_hu|mus_mus_mus_hu_True|1_8 (ssRNA)
RNA: GGGAGUUCUACAGUCCGACGAUCUUCCACACGGAAAUGUACUUCGGGUUUUCCAACGGCCAGUACCAGUCCGGCCAAACUACCCGAACAGGGUCCUCCCCCUCUCUCCUACAGAACACAACAAAAUAACAAAAUACCCCGAACCAACAGAGGAUUGAGCAUCA
B18: chr2:61719535:61719536:-_ENSG00000082898_ENST00000401558|hu_hu|motif|central (ssRNA)
RNA: GGGAGUUCUACAGUCCGACGAUCGUUAACUACAGUCUUCAGAAAUUUCCAGUGAGCUCUCAAAAAACGUGGGUAUUGACCGGCGGUGUACAUGAUAUUUGAUGCAAUAAUAGCUUUAUUAUCUUUGCCUCUUUUCUGUUCACACAACAGAGGAUUGAGCAUCA
B19: chr14:76904430:76904431:+_ENSMUSG00000022010_ENSMUST00000022587|mus_mus|mus_mus_mus_hu_True|28_38 (ssRNA)
RNA: GGGAGUUCUACAGUCCGACGAUCUGCAGCCAAAAACACCCUCGUGGAAAAAAAGAGGGAACACCAGCAGCCUUGUAUAAGCUAGAUAAAAUCUUCUAGCUGUCUGCAGCUCAGGGCGAAACAGAAAACGGCAGCCCUAAUUUACAACAGAGGAUUGAGCAUCA
B20: chr1:151373259:151373260:+_ENSG00000159377_ENST00000290541|hu_hu|FALSE|FALSE (ssRNA)
RNA: GGGAGUUCUACAGUCCGACGAUCCAAGUAUGCACCAUAACCAGUGGCCAGCGAAGGGGCUUCAUAGGCUACACCAAGCAUGUCCACAUAACCGAGGAAGCUCUCUCCAUCAGCAUAGCCUCCGAUGACCAUGGUGUUCCACAACAACAGAGGAUUGAGCAUCA
B21: 17669756_17675234_813_CDS_ENSG00000124789_ENST00000262077|human|control|control (ssRNA)
RNA: GGGAGUUCUACAGUCCGACGAUCCAUUUGUCUUCUAACUGGUGCCUGAUAAGGUGUAUUUCGUAGUUUAGACUGUCUUACAGCAGCUGCUGCCCCACCGUAUGUUGUUUUUCCAGGAUAAAAAGGAGAAUCUCCAAGCUGACUCAACAGAGGAUUGAGCAUCA
B22: chr22:19452774:19452775:-_ENSG00000070010_ENST00000399523|hu_hu|hu_hu_hu_mus_False|28_28 (ssRNA)
RNA: GGGAGUUCUACAGUCCGACGAUCCUUCUCAUUGUAGUUGAUAGCAAUCACAUCUCCAGUCGUCAGACAGGCGAAGUUUCUCAAUGCAUUUUCUAAUACCGCUUUAGGGUUGGUGAUAUCCAGGAAGUCUGGGCUCUGAGGCUGCAACAGAGGAUUGAGCAUCA

The other results are listed elsewhere or left out.

The target of this assay is T1, UNK ZnF1-3. Description: nsRBNS (natural sequence RNA bind-n-seq); RBNS binding buffer (assumed for nsRBNS): 25 mM Tris pH 7.5, 150 mM KCl, 3 mM MgCl2, 0.01% Triton X-100, 500 ug/ml BSA, 20 U/ml SUPERase-In, 4 C; UNK is unkempt and MSI1 is Musashi-1; names of the RNAs are library labels; protein concentration not given here; high values mean tight binding.
B1 displayed a binding signal of 1.37 enrichment R.

With B2, the binding signal came out at 1.24 enrichment R.

Take B3: the binding signal was 0.479 enrichment R.

In turn, B4 registered a binding signal of 0.683 enrichment R.

Regarding B5, the binding signal stood at 0.665 enrichment R.

In the case of B6, the binding signal is 0.493 enrichment R.

As to B7, the binding signal came to 0.781 enrichment R.

Molecule B8 gave a binding signal of 1.25 enrichment R.

Molecule B9 displayed a binding signal of 1.05 enrichment R.

Consider B10, for which the binding signal was 2.75 enrichment R.

In the case of B11, the binding signal was 1.18 enrichment R.

With B12, the binding signal was found to be 2.93 enrichment R.

Molecule B13 showed a binding signal of 0.948 enrichment R.

In turn, B14 came in with a binding signal of 1.47 enrichment R.

B15: the binding signal stood at 1.31 enrichment R.

In turn, B16 returned a binding signal of 1.42 enrichment R.

For the molecule B17, the binding signal is 1.24 enrichment R.

For the molecule B18, the binding signal was 1.11 enrichment R.

Take B19: the binding signal worked out at 2.05 enrichment R.

For the molecule B20, the binding signal turned out to be 0.96 enrichment R.

B21 returned a binding signal of 0.674 enrichment R.

Take B22: the binding signal amounted to 0.775 enrichment R.

The record behind these values is article PMC12136788.
